Results as given in PubChem BioAssay AID1347165 (National Center for Advancing Translational Sciences (NCATS), 2019).
Where “and” joins values, the source holds several entries; their conditions need not be identical. Identical values can stand only once. Hit rate of the full screen: of about 220,000 compounds, about 5,700 (2.6%) were called active. The inconclusive results got no clear call from the source; some entries with a clear call stand among them for comparison. Calls come from the whole dose curve; as a rule, active = well fitted inhibition curve with a large enough effect; inconclusive = small, poorly fitted or top-dose-only effect; inactive = no such curve, though single readings can be large or run the other way. Potencies beside an inconclusive call are fits to weak or partial responses and may not hold up.

target: Lysine-specific demethylase 5B (Homo sapiens) (UniProt Q9UGL1); assay: Primary screen for KDM5B Histone Demethylases FDH-coupled qHTS; conditions: FDH-coupled NADH fluorescence (FDH is formaldehyde dehydrogenase); series mostly up to 57.7 µM; note: nearly all actives have a fitted effect of over 70% in size
Chain of UniProt Q9UGL1 (Q9UGL1 whole entry, looked up): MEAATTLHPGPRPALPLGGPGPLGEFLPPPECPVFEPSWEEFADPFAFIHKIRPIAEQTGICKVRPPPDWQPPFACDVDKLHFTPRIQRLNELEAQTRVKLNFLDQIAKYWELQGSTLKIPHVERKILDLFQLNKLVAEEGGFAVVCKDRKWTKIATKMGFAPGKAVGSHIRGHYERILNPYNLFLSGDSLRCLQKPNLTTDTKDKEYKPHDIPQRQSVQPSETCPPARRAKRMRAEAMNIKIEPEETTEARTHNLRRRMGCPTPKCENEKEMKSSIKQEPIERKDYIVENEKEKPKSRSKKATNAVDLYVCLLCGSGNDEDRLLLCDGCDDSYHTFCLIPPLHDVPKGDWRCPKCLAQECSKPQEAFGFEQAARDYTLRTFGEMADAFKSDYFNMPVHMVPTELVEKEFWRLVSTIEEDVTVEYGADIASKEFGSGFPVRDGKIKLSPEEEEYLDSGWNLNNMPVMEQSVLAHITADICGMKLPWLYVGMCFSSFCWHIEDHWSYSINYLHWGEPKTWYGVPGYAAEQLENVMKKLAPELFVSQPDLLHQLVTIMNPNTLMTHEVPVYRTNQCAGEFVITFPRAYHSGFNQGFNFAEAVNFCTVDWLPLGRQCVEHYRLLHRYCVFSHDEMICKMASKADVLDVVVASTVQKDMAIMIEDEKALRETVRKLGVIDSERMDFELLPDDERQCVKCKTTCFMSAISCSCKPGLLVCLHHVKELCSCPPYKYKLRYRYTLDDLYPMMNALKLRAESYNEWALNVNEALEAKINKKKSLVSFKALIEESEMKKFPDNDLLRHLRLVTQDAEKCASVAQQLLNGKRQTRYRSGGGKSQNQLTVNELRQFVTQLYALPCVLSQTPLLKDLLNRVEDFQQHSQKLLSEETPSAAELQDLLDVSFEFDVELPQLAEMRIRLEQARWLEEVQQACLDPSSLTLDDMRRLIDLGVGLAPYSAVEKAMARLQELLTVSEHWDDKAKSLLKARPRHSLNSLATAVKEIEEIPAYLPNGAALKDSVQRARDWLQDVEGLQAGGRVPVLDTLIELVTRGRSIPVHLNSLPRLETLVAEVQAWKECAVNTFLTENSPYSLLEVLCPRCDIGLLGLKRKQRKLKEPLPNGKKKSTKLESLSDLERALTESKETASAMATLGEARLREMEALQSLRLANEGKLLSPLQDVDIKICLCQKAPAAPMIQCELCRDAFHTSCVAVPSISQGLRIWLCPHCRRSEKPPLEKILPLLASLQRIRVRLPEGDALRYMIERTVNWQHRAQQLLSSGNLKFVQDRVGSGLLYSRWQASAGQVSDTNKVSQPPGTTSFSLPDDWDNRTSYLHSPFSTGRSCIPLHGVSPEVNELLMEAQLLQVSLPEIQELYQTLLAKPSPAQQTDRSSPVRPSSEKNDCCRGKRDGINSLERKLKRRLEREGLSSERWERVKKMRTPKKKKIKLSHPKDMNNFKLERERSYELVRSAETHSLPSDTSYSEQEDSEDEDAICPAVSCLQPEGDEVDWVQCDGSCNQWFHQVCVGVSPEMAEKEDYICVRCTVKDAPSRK
Summary of the method: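 Compound dilutions met 200 nM (final) KDM5BΔAP for 10 min at room temperature before substrate addition. The substrate mix held 12.5 µM H3K4me3 with cofactors 25 µM α-ketoglutarate and 50 µM Fe²⁺. NADH signal gain over 30 min defined activity.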
Potency is the fitted concentration of half-maximal effect; tags give direction and shape of the fitted curve.

| SMILES | Potency |
| --- | --- |
| CCc1cc(C(=O)Nc2cc(Cl)ccc2Cl)no1 | inactive |
| CN(C)C[C@@H]1CN(Cc2ccccc2)C[C@H]1NC(=O)C1CC=CC1 | inconclusive: 35.5 µM [inhibitor, partial curve, poor fit] |
| Cc1oc2c(CN3CCCC(C)C3)c(O)ccc2c(=O)c1-c1ccccc1 (centres undefined) | inconclusive: 28.2 µM [inhibitor, partial curve, poor fit] |
| CN1CCC(Cn2ccc3c(N4CCOCC4)nc(-c4cccc5[nH]ccc45)cc32)CC1 | active: 7.94 µM |
| CCC1=C(C(=O)OC)C(c2ccc(C)cc2C)N2C(CC(=O)N3CCC(C)CC3)=CSC2=N1 (centres undefined) | inconclusive: 35.5 µM [inhibitor, partial curve, poor fit] |
| CN1CCN(C(=O)Nc2cccc(Cl)c2)c2cccnc21 | inconclusive: 15.8 µM [inhibitor, partial curve, poor fit] |
| CC(Oc1ccccc1)C(=O)OCc1nc(N)nc(N)n1 (centres undefined) | inactive |
| COc1cc(-c2nnc(SCC(=O)NC3CCCc4ccccc43)o2)cc(OC)c1OC (centres undefined) | inactive |
| Cc1ccccc1CN1CCCn2nc(C)c(-c3cccnc3N3CCOCC3)c21 | inconclusive: 35.5 µM [inhibitor, partial curve, poor fit] |
| O=C(Nc1cccc(F)c1)[C@@H]1C[C@H](c2ccc(F)cc2)N([S+](=O)([O-])C2CC2)C1 | inactive |
| O=C(CCc1c[nH]c2ccccc12)OCC(=O)N1CCCCCC1 | inactive |
| COc1ccc(C2=C(O)C(=O)N(Cc3ccco3)C2c2ccc(C(C)C)cc2)cc1 (centres undefined) | inactive |
| CCOC(=O)c1cnc2c(C(F)(F)F)cccc2c1Nc1cccc(C(=O)OC)c1 | inconclusive: 12.6 µM [inhibitor, partial curve, poor fit] |
| COCc1nc(C2CC(Nc3ccnc4cc(Cl)ccc34)C2)cc(=O)[nH]1 (centres undefined) | inconclusive: 17.8 µM [inhibitor, partial curve, poor fit] and inconclusive: 11.2 µM [inhibitor, partial curve, poor fit] |
| COc1ccc(S(=O)(=O)N2C[C@@H]3C[C@H](C2)c2ccc(NC(=O)c4cnccn4)c(=O)n2C3)cc1 | inconclusive: 31.6 µM [inhibitor, single point] |
| CCNc1ncnc2sc3c(c12)CCN(C(=O)c1ccnn1C)C3 | inconclusive: 28.2 µM [inhibitor, partial curve, poor fit] |
| COc1ccc(-c2nc3cc(C)ccc3cc2CN2CCCC(C(N)=O)C2)cc1 (centres undefined) | inconclusive: 28.2 µM [inhibitor, single point] |
| COc1ccccc1-c1ccc(C(=O)N2C[C@@H](C)[C@@](C)(O)C2)cc1 | inconclusive: 35.5 µM [inhibitor, partial curve, poor fit] |
| O=C(c1cccc(O)c1)N1CC(COc2ccccc2)C2(C1)CN(C(=O)c1cn[nH]c1)C2 (centres undefined) | inactive |
| Cc1nn(Cc2ccccc2)c(C)c1[C@@H]1C=C[C@@H](NC(=O)CCC(=O)O)C1 | inconclusive: 39.8 µM [inhibitor, partial curve, poor fit] |
| O=C(c1cccc2cnccc12)N1CCCC2(C=Cc3ccccc3O2)CC1 (centres undefined) | inactive |
| Cc1cn2nc(C(=O)NCc3ccccc3)cc2c(=O)[nH]1 | inconclusive: 35.5 µM [inhibitor, single point] |

| SMILES | Potency |
| --- | --- |
| COc1ccc(CNC(=O)c2c(Nc3ccccc3C)sc(C(=O)c3ccccc3)c2N)cc1 | inconclusive: 15.8 µM [inhibitor, partial curve, poor fit] |
| COc1cc2[nH]c(=O)n(CCCC(=O)NCc3ccccc3)c(=O)c2cc1OC | inconclusive: 17.8 µM [inhibitor, partial curve, poor fit] |
| CCOP(=O)(OCC)c1nc(Cc2ccccc2)oc1NCc1ccco1 | inactive |
| N#Cc1ccccc1CSCCNC(=O)c1nccnc1N | inconclusive: 28.2 µM [inhibitor, partial curve, poor fit] |
| COc1ccc(C(=O)N2CCC(n3cc(-c4nc(C)no4)nn3)CC2)cc1F | inconclusive: 25.1 µM [inhibitor, partial curve] |
| CC(C)C(=O)N1CC(=O)Nc2ccc(F)cc2C1c1ccc(F)cc1 (centres undefined) | inactive |
| CCCC(CCC)C(=O)Nc1cccc(-c2cn3cccnc3n2)c1 | inconclusive: 2.51 µM [inhibitor, partial curve, poor fit] |
| N#CCOc1ccc(NC(=O)c2cc(=O)[nH]c3ccccc23)cc1 | inconclusive: 28.2 µM [inhibitor, partial curve, poor fit] |
| CSc1cccc(N=Cc2ccc(-c3ccccc3Cl)o2)c1 | inactive |
| Cc1ccc(C)c(N2CCN(C(=O)c3ccc4[nH]c(C)c(C)c4c3)CC2)c1 | inconclusive: 4.47 µM [inhibitor, partial curve, poor fit] |
| Cc1cc(SCC(=O)NC2(C)CCS(=O)(=O)C2)nc2c(C)cccc12 (centres undefined) | inactive |
| CCOC(=O)C1CCCN(C(=O)Cn2ncc3c([nH]c4ccc(C)cc43)c2=O)C1 (centres undefined) | inconclusive: 14.1 µM [inhibitor, partial curve, poor fit] |
| COc1cccc(CCNC(=O)C(=O)NCc2n[nH]c(=O)c3ccccc23)c1 | inactive |
| O=C(CCSc1nc(Cl)nc2nc[nH]c12)NCCc1ccccc1 | inactive |
| O=C(NCCN1CCOCC1)C1CCCN(C2CCN(Cc3ccncc3)CC2)C1 (centres undefined) | inconclusive: 14.1 µM [inhibitor, partial curve] |
| CCn1c(SCc2ccccc2F)nc(=O)c2c(C(=O)OC)cc(C3CC3)nc21 | inconclusive: 28.2 µM [inhibitor, partial curve, poor fit] |
| COc1ccc(C2Cn3nnc(-c4noc(-c5ccc(OC)cc5C)n4)c3CO2)cc1 (centres undefined) | inconclusive: 28.2 µM [inhibitor, partial curve, poor fit] |
| Cc1ccc(Nc2ncc(C(=O)NC3CCCC(C)C3C)c3ccccc23)cc1Cl (centres undefined) | inconclusive: 1.58 µM [inhibitor, partial curve, poor fit] |
| CN1CC2(CCCN(Cc3cccc4nonc34)C2)OC1=O (centres undefined) | inactive |
| COC(=O)COc1ccc2c(C)c(-c3ccc(OC)c(OC)c3)c(=O)oc2c1 | inconclusive: 39.8 µM [inhibitor, single point] |
| CCc1nn2c(=O)cc(CNc3ccccc3C(=O)NC3CC3)nc2s1 | inconclusive: 39.8 µM [inhibitor, single point] |
| COc1ccc(-c2cnc(N)nc2-c2ccc(OC)cc2)cc1 | inconclusive: 20 µM [inhibitor, partial curve, poor fit] |

| SMILES | Potency |
| --- | --- |
| Cc1oc2ccc(OCc3ccccc3Cl)cc2c1C(=O)O | inconclusive: 35.5 µM [inhibitor, partial curve, poor fit] |
| CC(C(=O)NC(=O)NC12CC3CC(CC(C3)C1)C2)N1CCN(c2oc(-c3ccco3)nc2C#N)CC1 (centres undefined) | inactive |
| COc1ccc(Nc2cc(C)c3cc(NC(=O)Cc4c(F)cccc4Cl)ccc3n2)cc1 | inconclusive: 31.6 µM [inhibitor, partial curve, poor fit] |
| CCOc1cc(C2C(C#N)=C(N)Oc3cc4c(cc32)OCO4)c(Br)cc1OC (centres undefined) | inconclusive: 22.4 µM [inhibitor, single point] |
| CCN(Cc1ccccc1)C(=O)C1CCN(S(=O)(=O)c2c(C)noc2/C=C/c2ccc(C)cc2)CC1 | inconclusive: 15.8 µM [inhibitor, partial curve, poor fit] |
| Cc1ccccc1NC(=O)CSc1nc(N2CCCC2)c2c(c1C#N)CCCC2 | inactive |
| N#C/C(=C\c1cn(CC(=O)NCc2ccco2)c2ccccc12)C(=O)NC1CCCCC1 | inactive |
| Cc1ccc(-c2noc([C@@H]3Cc4nc[nH]c4CN3C(=O)c3ccccc3)n2)cc1 | inconclusive: 28.2 µM [inhibitor, partial curve, poor fit] |
| COc1ccccc1-c1ccnc(-c2nnc(C)n2Cc2ccccc2)c1 | inconclusive: 28.2 µM [inhibitor, single point] |
| Cc1ccc(CNC(=O)c2ccc(-c3nc(CN4CCc5ccccc54)c(C)o3)cc2)cc1 | inconclusive: 28.2 µM [inhibitor, single point] |
| CCCCNC(=O)c1ccc2c(=O)n(-c3ccccc3)c(=O)[nH]c2c1 | inconclusive: 22.4 µM [inhibitor, partial curve, poor fit] |
| CC(=O)Nc1ccc(C(=O)CSc2nnc3cc(C)c4ccccc4n23)cc1 | inconclusive: 14.1 µM [inhibitor, partial curve, poor fit] |
| COc1ccc2[nH]c(C)c(CCC(C)=O)c(=S)c2c1 | inconclusive: 35.5 µM [inhibitor, single point] |
| Cc1ccc(C(=O)NCc2nnc3ccc(-c4ccc(F)cc4)nn23)c(C)c1 | inconclusive: 14.1 µM [inhibitor, partial curve, poor fit] |
| Cc1ccc(C2C(C#N)=C(N)Oc3c2oc(CO)cc3=O)cc1C (centres undefined) | inactive |
| O=C(c1ccncc1)N1CCCCCC1CN1CCCC1 (centres undefined) | inactive |
| O=C(COc1ccc(Cl)cc1)NCCc1csc(-c2ccncc2)n1 | inactive |
| CN(C)C[C@@H]1CN(c2ncccn2)C[C@H]1NC(=O)c1ccncn1 | active: 31.6 µM |
| CCN1c2cc(C(=O)NCc3ccc(F)cc3F)ccc2C(=O)N2CCCCCC21 (centres undefined) | inconclusive: 22.4 µM [inhibitor, partial curve, poor fit] |
| CCC(=O)Nc1ccc2nc(SCC(=O)N3CCc4ccccc43)sc2c1 | inconclusive: 28.2 µM [inhibitor, single point] |
